# In all, about 300,000 compounds went through this assay and about 1,200 (0.4%) were called active. This list was built around the results that the source calls inconclusive (neither active nor inactive); the mix of calls is not that of the screen. Calls come from the whole dose curve; as a rule, active = well fitted inhibition curve with a large enough effect; inconclusive = small, poorly fitted or top-dose-only effect, or another doubt; inactive = no such curve, though single readings can be large or run the other way. Where the call is inconclusive, the potency comes from a doubtful curve fit.
# Target: Lysosomal alpha-glucosidase (Homo sapiens) (UniProt P10253)
# Test: qHTS Assay for Inhibitors and Activators of Human alpha-Glucosidase Cleavage of Glycogen
# Settings: recombinant GAA, glycogen substrate, Amplex Red glucose oxidase fluorescence; series mostly up to 76.4 µM
# Method in brief: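 Recombinant enzyme (4 nM final) with compounds titrated up to 77 uM and bovine liver glycogen (30 ug) in citrate pH 5.0, 0.01% Tween-20, 37 C 40 min. Released glucose detected by Amplex Red/glucose oxidase (Ex 573/Em 610); AC50 from Hill fits.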
# Potency is the fitted concentration of half-maximal effect.
row,SMILES,Potency
1,O=C(CNC(=O)c1cccs1)c1ccc([N+](=O)[O-])cc1,"inconclusive: 44.7 µM [inhibitor, single point]"
2,CCCCc1cc(=O)oc2cc(OCC(=O)NC(Cc3c[nH]c4ccc(O)cc34)C(=O)O)ccc12 (stereo not drawn),"inconclusive: 8.91 µM [inhibitor, partial curve]"
3,CCn1c(SCC(N)=O)nc2sc3c(c2c1=O)CCN(C)C3,"inconclusive: 31.6 µM [activator, single point]"
4,Fc1ccc(N/N=C/C=C/c2ccccc2)c(F)c1,"inconclusive: 35.5 µM [inhibitor, partial curve]"
5,COc1cc(/C=N\NC(=O)CNC(=O)c2cccc([N+](=O)[O-])c2)ccc1O,"inconclusive: 22.2 µM [inhibitor, single point]"
6,COc1ccc(S(=O)(=O)Nc2c(C(=O)O)[nH]c3ccccc23)cc1OC,"inconclusive: 4.43 µM [inhibitor, single point]"
7,COc1ccc(NC(=S)N2CCCC(c3nc4ccc(C)cc4[nH]3)C2)cc1 (stereo not drawn),"inconclusive: 2.22 µM [inhibitor, full curve, poor fit]"
8,COc1ccc(Nc2oc(-c3ccccc3)nc2C#N)cc1,"inconclusive: 35.2 µM [inhibitor, partial curve]"
9,[N-]=[N+]=NCCN1CCN(Cc2ccccc2)CCC1=O,"inconclusive: 50.1 µM [inhibitor, partial curve]"
10,CCOc1ccc(CNc2ccc(N3CCOCC3)c(C(=O)O)c2)cc1,"inconclusive: 11.2 µM [inhibitor, partial curve, poor fit]"
11,O=c1[nH][nH]c(-c2ccccc2O)c1C(C[N+](=O)[O-])c1ccccc1 (stereo not drawn),"inconclusive: 31.6 µM [inhibitor, single point]"
12,O=C(CSc1nc2nn(-c3ccccc3)c(=O)c-2c2n1CCCCC2)NCCCc1ccccc1,"inconclusive: 63.1 µM [inhibitor, partial curve]"
13,OCC(O)C1OC(Nc2ccc(Br)cc2)C(O)C1O (stereo not drawn),"inconclusive: 17.6 µM [activator, single point]"
14,N#CCc1ccc(NS(=O)(=O)c2cccs2)cc1,inactive
15,COc1ccccc1NC(=O)c1c(N=Cc2c(O)ccc3ccccc23)cnn1C,inactive
16,Cc1c(NC(NC(=O)CC(C)C)C(Cl)(Cl)Cl)c(=O)n(-c2ccccc2)n1C (stereo not drawn),"inconclusive: 39.8 µM [inhibitor, single point]"
17,COc1ccc(S(=O)(=O)Nc2cc3c(cc2NCc2ccccc2)n(C)c(=O)n3C)cc1,active: 10 µM
18,CCC(=O)Nc1ccc(Nc2ccccc2)cc1,"inconclusive: 22.4 µM [inhibitor, partial curve]"
19,C/C(=N\Nc1cccc(Cl)c1)c1ccncc1,"inconclusive: 12.6 µM [inhibitor, partial curve]"
20,CCc1nn(CC(=O)N2CCN(c3cccc(C(F)(F)F)c3)CC2)c(=O)c2cccn12,inactive
21,Nc1nc(Nc2cccc(Cl)c2)n[nH]1,"inconclusive: 39.5 µM [inhibitor, single point]"
22,O=C(COc1ccc2c(-c3ccccc3)cc(=O)oc2c1)N[C@@H](Cc1c[nH]c2ccc(O)cc12)C(=O)O,active: 2.24 µM

row,SMILES,Potency
1,COc1ccc(CNc2oc(-c3ccc(COc4ccc(OC)cc4)o3)nc2C#N)cc1,"inconclusive: 31.6 µM [inhibitor, partial curve]"
2,CC1(C)Cc2nc(-c3ccccc3)nc(NNC(=O)c3ccco3)c2CO1,"inconclusive: 25.1 µM [inhibitor, partial curve]"
3,CC(C)COP(=O)(OCC(C)C)C(O)c1ccc(N(C)C)cc1 (stereo not drawn),"inconclusive: 50.1 µM [inhibitor, partial curve, poor fit]"
4,O=C(O)[C@H]1CCCC[C@H]1C(=O)Nc1ccc(Nc2ccccc2)cc1,"inconclusive: 35.5 µM [inhibitor, partial curve]"
5,Fc1ccccc1/C=C1\CCCC2=C1NC(=S)NC2c1ccccc1F (stereo not drawn),"inconclusive: 15.8 µM [inhibitor, partial curve]"
6,C=CCNc1nnc(SCC(=O)Nc2ccccc2OC)c2ccccc12,"inconclusive: 50.1 µM [inhibitor, single point]"
7,N#C/C(=C/c1ccc(N2CCOCC2)o1)c1ccc(Cl)cc1,inactive
8,NC(=S)N/N=C/c1coc2ccc(O)cc2c1=O,"inconclusive: 50.1 µM [inhibitor, single point]"
9,CCOC(=O)c1c(NC(=O)CNCCO)sc(C)c1C,"inconclusive: 39.8 µM [inhibitor, partial curve]"
10,O=[N+]([O-])/C(C(Cl)=C(Cl)Cl)=C1\Nc2ccccc2O1,"inconclusive: 17.8 µM [inhibitor, partial curve]"
11,O=C(O)Cc1csc(Nc2cccc(Cl)c2)n1,"inconclusive: 35.5 µM [inhibitor, partial curve]"
12,Nc1ccccc1C(=O)Nc1cccc(C(=O)O)c1,inactive
13,CCOC(=O)c1c(N)sc2c1CCCC2,active: 35.5 µM
14,O=C(O)c1cc(NN=C2c3ccccc3-c3ccccc32)ccc1Cl,"inconclusive: 35.5 µM [inhibitor, single point]"
15,COc1cccc(C(=O)Nc2ccccc2-c2nnc(-c3cccc(OC)c3)o2)c1,inactive
16,CCOc1ccc(/C=C/c2nc(C#N)c(NCCc3ccccc3)o2)cc1,inactive
17,Cc1ccccc1Nc1c(-c2cccs2)nc2cccc(C)n12,"inconclusive: 0.891 µM [inhibitor, full curve]"
18,COc1ccccc1NC(=O)Cn1c(=O)n(CCCCCC(=O)NCc2ccccc2)c(=O)c2sccc21,inactive
19,O=C1C2Sc3[nH]c(=O)sc3C(c3cc([N+](=O)[O-])ccc3O)C2C(=O)N1c1ccccc1 (stereo not drawn),"inconclusive: 22.4 µM [inhibitor, partial curve]"
20,Cc1onc(C(=O)NN)c1C(=O)N1CCN(C(c2ccccc2)c2ccccc2)CC1,"inconclusive: 35.5 µM [inhibitor, partial curve]"
21,COc1ccc(Cl)cc1NC(=O)CSC1=Nc2ccccc2C2=NC(CC(=O)NCc3cccs3)C(=O)N12 (stereo not drawn),"inconclusive: 31.6 µM [inhibitor, partial curve]"

# From PubChem BioAssay AID2100 (National Center for Advancing Translational Sciences (NCATS), 2009)
